{
  "source": "the supplement of paper PMC11417369",
  "note": "This is one part of the list.",
  "data": [
    {"tested_on": "PfSIP2 AP2 domain 1 (GST-tagged)", "experiment": "gcPBM binding intensity (ln(normalized median fluorescence intensity)); higher = stronger DNA binding", "summary_of_the_method": "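Binding intensity values are the highest Masliner-normalised natural-log median intensity among replicate spots of either probe orientation. The binding step lasted 1 h in 1× PBS with 1% milk, 0.2 mg/ml BSA, 0.5% salmon testes DNA and 0.03% Triton X-100, using GST-tagged P. falciparum DNA-binding domains expressed in E. coli on an Agilent 4 × 180k array of primer-extended double-stranded 36-bp intergenic genomic probes plus negative controls. Alexa488 anti-GST antibody and a 488 nm scan detected bound protein.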", "values": [
      {"sequence": "ATAAATTTACATTTTTTTTTTTTTTTTTTTTTTTTT [GTGCAC_negctrl_site689]", "gcPBM binding intensity (ln)": 8.6},
      {"sequence": "GTATAGTACAAATAAGTGCATATAAAAGAAATACAG", "gcPBM binding intensity (ln)": 8.56},
      {"sequence": "TAATTTTTATTCAGTTCACACACGCTTTAATATTAT [CACACA_site9147]", "gcPBM binding intensity (ln)": 6.89},
      {"sequence": "ATTACCAAAAAAAGGTGTACAAATATAATTATGAAA [XGTACX_site44]", "gcPBM binding intensity (ln)": 7.58},
      {"sequence": "TTTTCCTTTCACAATGGTACACAAATATACATGCAA [XGTACX_site7244]", "gcPBM binding intensity (ln)": 7.26},
      {"sequence": "ATTTTTTTTCGTAATTGTTCTTAATGTTGAATTATA [CACACA_negctrl_site1135]", "gcPBM binding intensity (ln)": 7.06},
      {"sequence": "TAGTAATATGTATCCATACACACATACATTTTATTT [CACACA_site873]", "gcPBM binding intensity (ln)": 6.95},
      {"sequence": "AGCTATATAAATAATACATGCATTGTTCAGGTATTT [TGCATGCA_site964]", "gcPBM binding intensity (ln)": 6.83},
      {"sequence": "ATTTATAATATTCAAGTGCATATATATTTTTTACTT", "gcPBM binding intensity (ln)": 8.31},
      {"sequence": "TACATAAATTAATAGTCACACACGTATTTTTTATAT [CACACA_site8806]", "gcPBM binding intensity (ln)": 6.87},
      {"sequence": "TAGTTCCTCAAAAATTTCCTTTGTCATTTTATTCAC [GTGCAC_negctrl_site20]", "gcPBM binding intensity (ln)": 6.73},
      {"sequence": "TAAAGAAATTCTTCATGTACTTATTATTTCTCTTTT [XGTACX_site6817]", "gcPBM binding intensity (ln)": 6.81},
      {"sequence": "GTTATACAAAATAATACATGCATGTCCTACATATAT [TGCATGCA_site320]", "gcPBM binding intensity (ln)": 7.07},
      {"sequence": "TATGGAATAAATTTATCCATACATCTTATAACATAT [XGTACX_negctrl_site500]", "gcPBM binding intensity (ln)": 6.78},
      {"sequence": "TGTATTCCTTTTTATAGTACAATTTAAAAGTATAAA [XGTACX_site2045]", "gcPBM binding intensity (ln)": 7.33},
      {"sequence": "GTACGTTTCTCCAGACTGCACTATACGACTCGTACA [GTGCAC_site9771]", "gcPBM binding intensity (ln)": 8.21},
      {"sequence": "AGAAAGATGCAAGAAACATGCAAAAAAAAAATTTCT [TGCATGCA_site725]", "gcPBM binding intensity (ln)": 6.64},
      {"sequence": "CACAAATATACAAATACACACAAATATACTCATATA [CACACA_site5339]", "gcPBM binding intensity (ln)": 6.87},
      {"sequence": "AAAAAATTATATAATAATAGAACTATACATTTTATT [GTGCAC_negctrl_site645]", "gcPBM binding intensity (ln)": 6.71},
      {"sequence": "ACATAATATATATATTGTACAAATATATTATTGTTA [XGTACX_site3385]", "gcPBM binding intensity (ln)": 7.08},
      {"sequence": "AGCCACGGGTTATATACACACATAATCAAATAAAAT [CACACA_site6117]", "gcPBM binding intensity (ln)": 6.94},
      {"sequence": "ATTTTTAATGGATAAGTGCATAATATTATGATGCAA", "gcPBM binding intensity (ln)": 8.46},
      {"sequence": "TATGTAATAAAATATACACACAATATACTTATATAT [CACACA_site3682]", "gcPBM binding intensity (ln)": 7.06},
      {"sequence": "AATACATTTATGAGCTGTACACATTTATTTGAGCTA [XGTACX_site7695]", "gcPBM binding intensity (ln)": 6.89},
      {"sequence": "AGTGTAATTTTCCACTGTACTTTTCTTGTATATAAT [XGTACX_site4201]", "gcPBM binding intensity (ln)": 6.91}
    ]}
  ]
}
